Laboratory results reported in the RNAGym collection of RNA variant scans (doi:10.7554/elife.90254).
Read counts are not given, so values of variants with three or more changes are uncertain.

B1: LINE1-mini (parent)
chain: GGCAGAGCUCAACACAGCGUGGCAAAGUGGCUGUGGCUAGACUGCC

Variants of: B1
Test: self-cleavage, relative activity (ratio to wild type); higher = more cleavage; in vitro, sequencing; the parent is a self-cleaving ribozyme
GUGAGAGCUCAACACAGCGUGGUAAAGUGGCUGAGGCUAGACUGCC gave a self-cleavage of 0.15. In the case of GGCAGAGAUCAACGCACCGUGGCAAGGUGGCUGUGGCUAGACUGCC, the self-cleavage is reported as 0.06. In the case of GGCAGAGCUCAACACAGCUUGGUAACGUGGCUGUGGCUAGACUGCU, the self-cleavage is reported as 0.45. Variant GGCAGAGUUCAACACAAUGUGGCAAAGUGGCUGUGGCUAGACUGCC has a self-cleavage of 0.07. GGCAGAGCUCAAGACAGCGUGACAAAGGGGCUGUGGCUAGACUGCC showed a self-cleavage of 0.04. GGGAGAGAUCAACACAGCGUGGCAAAGUGGCUGUAGCUAGACUGCC showed a self-cleavage of 1.24. GGCAGAGCUCAACACAGCGUUGCAAAGCGGCUGUGGCCACACUGCC gave a self-cleavage of 0.03. Work on GGUAGAGCUAAACAGAGCGUGGUAAAGUGGCUGCAGCUAGCCUGCC yielded a self-cleavage of 0. With UGCAGAGAUCAACACAGCGGGGCAAAGUGCCUGUGGCUAGACUACC the self-cleavage was 0.17. For GGCAGAGCACAACACAGCGUGGCAAAGUAGCUGUUGCAAGACUGCC, the self-cleavage was 0.21. Variant GGCAGAGCUGCACACAGCGUGGCAAAGUGGCUAUGGCUAGACUGCC has a self-cleavage of 0.05. Work on GGCAGAGCUCGACACAGCGUGGAAAAACGGCUGUGGUUAGACUGCC yielded a self-cleavage of 0.02. In the case of GGCAGAGCUCAACACAGCGUGGCAGAGUGGCUGCGGCUAGAGUGCC, the self-cleavage is reported as 0.02. For GGCAGAGCUAAACUCAGCGUGGCAAAGUCGCUGUGGCUAGACUGCC, the self-cleavage was 0.01. In the case of GGCAGACCUCAACACAGCGCGGCCAAGUGGCUGUGGCUAGACUGCU, the self-cleavage is reported as 0.02. Variant GUCGCAGCUCAACACAGCAUGGCAAAGUGGCUGUGGCUAGACUGCC has a self-cleavage of 0.13. GGCAGAGCUCAACACAGCGUAUCAAAAUGGCUGUGGAUAGGCUGCC showed a self-cleavage of 0.02. Variant GGCAGAGCUCCACACGGCGUGGCAAAGUGGCUGUGGCGACACUGCC has a self-cleavage of 0. Work on GGCAGAGGUCAUCACAGUGUGGCAAAGUGGUUGUGGCUAGACUGCC yielded a self-cleavage of 0.05. GGCAGACCUCAACACAGCGUGGGAACGUGGCUGUGGCUAGACUGCA gave a self-cleavage of 0.05. GGCAGAGCUCAACACAGCGUCGCAAAGUGGCUGUGGCAAGAGGGCC showed a self-cleavage of 0.01. In the case of GGCAGAACUUAACACAGCGUGGCAAAGUGGCUGUGGCUAGACUGUC, the self-cleavage is reported as 0.08. Variant GGCAGAGCUCAACACAGCCUGGCAGAGUGGCUGUGGUUAGACUGCG has a self-cleavage of 0.07. In the case of GGCAGAGAUCAACUCAGCGUGGCAACGUGGCUGUGGCUUGACUGCC, the self-cleavage is reported as 0.14. In the case of GGCAGAGCUCAACACAGCGUGGCAAAGUGGUUGUGACUAAACUGCC, the self-cleavage is reported as 0.07. Work on GGCAGAGCUAAACAUCACGUGGCAAAGUGGCUGUGGCUAGACUGCA yielded a self-cleavage of 0.02. With GGCAGACCUCAACACAGCGUGGCAAAGUGGCUGUGCAUAAACUGCC the self-cleavage was 0.41. For GGCAGAUCUAAACACAGCGUGUCAAAGUGGCUGUGCCUAGACUUCC, the self-cleavage was 0.01. GACAGAGCUCGACACAGCGUGGCAAAGUGGUUGUGGCUAGACUGUC showed a self-cleavage of 0.02. GACAGAGCUCAACACAGCAUGGCAAUGUCGCUGGGGCUAGACUGCC showed a self-cleavage of 0.08. GUCAUAACACAACACAGCGUGGCAAAGUGCAUGUGGCUAAACUGCC showed a self-cleavage of 0.05. Variant GGCAGAGCUCAACUCAGGGUGGCAAUGUGGCUGUGGCUAGACUGCC has a self-cleavage of 0.04. For GGCAGAGCCCAUCACAGCGUGGGAAAGUGGCUGUGGCUAUACUGCC, the self-cleavage was 0.01. Work on GGCAGAGCUCAACACCGCAUGGCUAAGUGGCUGUGGCUAGACUGCC yielded a self-cleavage of 0.05. With GGCAGAGCUCAACACAGCGUGGCAAAGUGGUUGUGGUUAGACUGCU the self-cleavage was 0.02. GGCAGAGGUCAACACAGCGUGGCAAAGUGUUUGUGGUUAGACUGCC showed a self-cleavage of 0.11. Work on GGCAGAGCUUGACACAGGGUGGCAAUGUGGCUGUGGCUAGACUGCC yielded a self-cleavage of 0.02. Work on CGCAGAGCUCGACACCGCGUGGAAAAAUGGCUGUGGCUAGACUGCC yielded a self-cleavage of 0. For GGCAGAGCUCAAGACCGCGUGGCAAAGUGGCUGUGGCUAUACUGCC, the self-cleavage was 0.03. Variant GGCAGAGCUCAACGCAGCGAGUCAAAGUGGUUGUGGCUUGAGUGCC has a self-cleavage of 0.15. GGCAGCGCUUAACACAGCGUGGCAAAGUGGCGGUGUCUAGACUGCC gave a self-cleavage of 0.03. GGCAGAGCUCAACACAACGUAGCAAAGUGGCUGUGGCUAGACUUCC gave a self-cleavage of 0.01. Variant GGCAGAGCUAAACACAGCGUGGUAAAGUGACUGUGGCUAGACUGCC has a self-cleavage of 0.04. UCCAGAGCUCAACACAGCGUGGCAAAGUGCAUUUAGCUAGACUGCC gave a self-cleavage of 0.01. In the case of GGUAGAGCUAAACACAGAGUGGCGAAGUGGCUGUGGCUAGUCUGAC, the self-cleavage is reported as 0.02. GAAAGAGCUCAACACAUCGUGGCAAAAUGGCGGCGGCUAGACAGCC gave a self-cleavage of 0.82. GGCUCUGCUCAACACAGCGUGGCAAAGUGGCUGCGGCUAGACUGCC gave a self-cleavage of 0.08. For GGCAGAGCUCAACACAGCGUGGCAACGUGGGUGUGGCUAGGCUGUC, the self-cleavage was 0.01. Work on GGCAGAGCUCAACACAGCGUGGCAAAGUGGCUGUUGCGAGACUCCC yielded a self-cleavage of 0.05. Variant GCCAUAGUUCAACACAGCGUGACAACGUGGCUGUGGCUAGACUGCC has a self-cleavage of 0.03. With GGCAGAGCUCAAAACAGCGUAGCAAAGUGGCGGUGGUAAGACUACC the self-cleavage was 0.17. Variant AGCAGAGCUAAACACAGCGUGGCUAAGUGGCUGUGGUUAGACUGCC has a self-cleavage of 0.05. In the case of GGCAGAGCUCAACACAGCGUGGCAAAGUGUCUGUAUCUAGAUUGAC, the self-cleavage is reported as 0.04. With GGCAGAGCUCAACACACAGUGGCAAAGUGGCUGGGGCUAGACUGCC the self-cleavage was 0.01. Variant GGCAGAGAUCACCACAGCGUCGCAAAGUGGCUGUGGCUAGACUGCC has a self-cleavage of 0.02. Work on GGCAGAGCUCAACUCAGCGGGGCGAAGCGGCGGUGGCUAGGCUGCC yielded a self-cleavage of 0.01.
